± gives the standard deviation. Only a part is listed here, and it is no random draw.
Tested on: MIWI (PIWIL1) piRISC loaded with L1MC piRNA (30 nt)
Assay: pre-steady-state target cleavage rate (min^-1); MIWI and MILI are mouse PIWI proteins and EfPiwi is from a freshwater sponge; tags in brackets are library labels; higher = faster piRNA-guided slicing of the target
Conditions: guide: L1MC piRNA 5'p-UAACUAAAUACUAUGCAAGCUGUAGGUCCU
Summary of the method: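 A transcribed, DNA-blocked target RNA library […] was incubated at 33 °C for 0–8 or 0–960 min with 1 nM active affinity-purified piRISC carrying one synthetic guide, in HEPES–potassium acetate buffer with or without 500 nM GTSF1 partner protein. Uncleaved targets were then sequenced and normalised to depth and to weakly complementary targets. Data from three trials were pooled, with k3 capped at 0.0001 min^-1, and a burst-and-steady-state fit yielded the pre-steady-state cleavage rate.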

[1] = auxiliary factor: 500 nM mouse GTSF1
[2] = auxiliary factor: none (no GTSF1)
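Note: 1 nM active piRISC with 0.1 nM target library at 33 °C single turnover.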

Row | Sequence | pre-steady-state target cleavage rate [1] | pre-steady-state target cleavage rate [2]
1 | AGGACCUACAGCUUAGCAUAGUAUUUAGUUA | 1.37 ± 0.052 | 0.0387 ± 0.011
2 | UCCUGGAUGUGCUUGCAUAGUAUUUAGAAA | 0.0621 ± 0.01 | 0.00508 ± 0.0024
3 | UCCUGGAUGAGCUUGCAUAGUUUUUAGUAA | 0.0897 ± 0.018 | 0.0145 ± 0.0052
4 | UCCACCUACAGCUUGCAUAGUAUUUUAGUUA | 0.779 ± 0.056 | 0.0197 ± 0.0047
5 | UCCUGGAUCAGCUUGCAUAGUAUUAUGAAA | 0.126 ± 0.027 | 0.00315 ± 0.0024
6 | UCCUGGAUCAGCUAGCAUAGUAUUUAGUUA | 0.962 ± 0.075 | 0.0128 ± 0.0027
7 | UCCUGGAUGUCGUUGCAUAGUAUUGAGUUA | 0.021 ± 0.0062 | 0.00394 ± 0.0025
8 | UCCUGGAUCUGCUUGCAUAGUAUUUACUUA | 0.148 ± 0.015 | 0.018 ± 0.0039
9 | UCCUGGAUGUCCUUGCAUAGUAUUUAAGUUA | 0.0513 ± 0.0091 | 0.00941 ± 0.0028
10 | UCCUGCUACAGCUUGCAUAGUAUUUACAAA | 0.309 ± 0.046 | 0.0049 ± 0.0034
11 | UCCACCUACAGCUUGCAUAGUAUAUUGUUA | 0.349 ± 0.036 | 0.0109 ± 0.0024
12 | UCCUGGUACAGCUUGCACAGUAUUUAGUUA | 0.752 ± 0.024 | 0.054 ± 0.0089
13 | UCGACCUACAGGUUGCUUAGUAUUUAGUUA | 1.29 ± 0.062 | 0.0168 ± 0.0036
14 | UCCUGGAAGAGCUAGCAUAGUAUUUAGUUA | 0.586 ± 0.035 | 0.00934 ± 0.0044
15 | AGGACCUACUCGUUGCAUAGUAUUUAGAAA | 0.232 ± 0.03 | 0.00601 ± 0.0021
16 | UCCUGGAUGUGGCUUGCAUAGUAUUUAGUUA | 0.815 ± 0.049 | 0.0624 ± 0.015
17 | AGGACCUUCAGCUUGCAUAGUAUUAAGUUA | 0.715 ± 0.058 | 0.0546 ± 0.01
18 | UCCUCCUUGAGCUUGCAUAGUAUUUAGAAA | 0.307 ± 0.043 | 0.00429 ± 0.0016
19 | UCCUGGAUGAGCUUGCAUAGUUUUUAGUUA | 0.175 ± 0.017 | 0.0303 ± 0.008
20 | UGGUCCUACAGCUUGCAUAGUAUUUAGUUA | 1.16 ± 0.052 | 0.0862 ± 0.015

Reference: the supplement of paper PMC10338343
